# Measured values published in the supplement of paper PMC8728848.
# Some of the results follow.
# Assays:
# Assay in all cases: glycan array binding signal (z-score within array); higher = stronger binding
# Conditions in all cases: glycan notation: IUPAC condensed, linker removed; mutation: R343K
# [1] = target: GlcNAc(b1-6)GalNAc
# Method in brief: (§1)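 Columns mapping to the same glycan were averaged after glycan names were converted to IUPAC-condensed notation. The data come from 3228 arrays in the Consortium for Functional Glycomics database, limited to those with an available protein sequence. Binding is reported as a within-array Z-score averaged across arrays of one protein sequence and across linkers.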
# [2] = target: GlcNAc3Prop(b1-4)GlcNAc
# Method in brief: as §1
# [3] = target: Kdn(a2-3)Gal(b1-3)GlcNAc
# Method in brief: as §1
# [4] = target: Kdn(a2-3)Gal(b1-4)GlcNAc
# Method in brief: as §1
# [5] = target: Man(a1-2)Man(a1-2)Man(a1-3)Man
# Method in brief: as §1
# [6] = target: Man(a1-2)Man(a1-2)Man(a1-6)[Man(a1-3)]Man
# Method in brief: as §1
# [7] = target: Man(a1-2)Man(a1-3)Man
# Method in brief: as §1
# [8] = target: Man(a1-2)Man(a1-3)[Man(a1-2)Man(a1-6)]Man
# Method in brief: as §1
# [9] = target: Man(a1-2)Man(a1-3)[Man(a1-2)Man(a1-6)]Man(a1-6)[Man(a1-2)Man(a1-2)Man(a1-3)]Man
# Method in brief: as §1
# [10] = target: Man(a1-2)Man(a1-3)[Man(a1-2)Man(a1-6)]Man(a1-6)[Man(a1-2)Man(a1-2)Man(a1-3)]Man(b1-4)GlcNAc(b1-4)GlcNAc
# Method in brief: as §1
# [11] = target: Man(a1-2)Man(a1-3)[Man(a1-6)]Man(a1-6)[Man(a1-2)Man(a1-3)]Man(b1-4)GlcNAc(b1-4)GlcNAc
# Method in brief: as §1
# [12] = target: Man(a1-2)Man(a1-6)[Man(a1-3)]Man(a1-6)[Man(a1-2)Man(a1-2)Man(a1-3)]Man
# Method in brief: as §1
# [13] = target: Man(a1-2)Man(a1-6)[Man(a1-3)]Man(a1-6)[Man(a1-2)Man(a1-2)Man(a1-3)]Man(b1-4)GlcNAc(b1-4)GlcNAc
# Method in brief: as §1
# [14] = target: Man(a1-3)[Man(a1-6)]Man
# Method in brief: as §1
# [15] = target: Man(a1-3)[Man(a1-6)]Man(a1-6)[Man(a1-2)Man(a1-3)]Man(b1-4)GlcNAc(b1-4)GlcNAc
# Method in brief: as §1
# [16] = target: Man(a1-3)[Man(a1-6)]Man(a1-6)[Man(a1-3)]Man
# Method in brief: as §1
# [17] = target: Man(a1-3)[Man(a1-6)]Man(a1-6)[Man(a1-3)]Man(b1-4)GlcNAc(b1-4)GlcNAc
# Method in brief: as §1
# [18] = target: Man(a1-3)[Man(a1-6)]Man(b1-4)GlcNAc(b1-4)GlcNAc
# Method in brief: as §1
# [19] = target: Man(a1-6)Man
# Method in brief: as §1
# [20] = target: Man(b1-4)GlcNAc
# Method in brief: as §1
# [21] = target: Neu5Ac(a2-3)Gal
# Method in brief: as §1
# [22] = target: Neu5Ac(a2-3)Gal(b1-3)GalNAc
# Method in brief: as §1
# [23] = target: Neu5Ac(a2-3)Gal(b1-3)GalNAc(b1-3)Gal(a1-4)Gal(b1-4)Glc
# Method in brief: as §1
# [24] = target: Neu5Ac(a2-3)Gal(b1-3)GalNAc(b1-3)Gal(b1-4)GlcNAc
# Method in brief: as §1
# [25] = target: Neu5Ac(a2-3)Gal(b1-3)GalNAc(b1-4)[Neu5Ac(a2-3)]Gal(b1-4)Glc
# Method in brief: as §1
# [26] = target: Neu5Ac(a2-3)Gal(b1-3)GalNAc6S
# Method in brief: as §1
# [27] = target: Neu5Ac(a2-3)Gal(b1-3)GlcNAc
# Method in brief: as §1
# [28] = target: Neu5Ac(a2-3)Gal(b1-3)GlcNAc(b1-3)Gal(b1-3)GlcNAc
# Method in brief: as §1
# [29] = target: Neu5Ac(a2-3)Gal(b1-3)GlcNAc6S
# Method in brief: as §1
# [30] = target: Neu5Ac(a2-3)Gal(b1-3)[Fuc(a1-4)]GlcNAc
# Method in brief: as §1
# [31] = target: Neu5Ac(a2-3)Gal(b1-3)[Fuc(a1-4)]GlcNAc(b1-3)Gal(b1-4)[Fuc(a1-3)]GlcNAc
# Method in brief: as §1
# [32] = target: Neu5Ac(a2-3)Gal(b1-3)[Neu5Ac(a2-3)Gal(b1-4)]GlcNAc
# Method in brief: as §1
# [33] = target: Neu5Ac(a2-3)Gal(b1-3)[Neu5Ac(a2-6)]GalNAc
# Method in brief: as §1
# [34] = target: Neu5Ac(a2-3)Gal(b1-4)Glc
# Method in brief: as §1
# [35] = target: Neu5Ac(a2-3)Gal(b1-4)GlcNAc
# Method in brief: as §1
# [36] = target: Neu5Ac(a2-3)Gal(b1-4)GlcNAc(b1-2)Man(a1-3)[GlcNAc(b1-2)Man(b1-4)GlcNAc(b1-2)Man(a1-6)]Man(b1-4)GlcNAc(b1-4)GlcNAc
# Method in brief: as §1
# [37] = target: Neu5Ac(a2-3)Gal(b1-4)GlcNAc(b1-2)Man(a1-3)[Neu5Ac(a2-6)Gal(b1-4)GlcNAc(b1-2)Man(a1-6)]Man(b1-4)GlcNAc(b1-4)GlcNAc
# Method in brief: as §1
# [38] = target: Neu5Ac(a2-3)Gal(b1-4)GlcNAc(b1-3)Gal(b1-3)GlcNAc
# Method in brief: as §1
# [39] = target: Neu5Ac(a2-3)Gal(b1-4)GlcNAc(b1-3)Gal(b1-4)GlcNAc
# Method in brief: as §1
# [40] = target: Neu5Ac(a2-3)Gal(b1-4)GlcNAc(b1-3)Gal(b1-4)GlcNAc(b1-3)Gal(b1-4)GlcNAc
# Method in brief: as §1
# [41] = target: Neu5Ac(a2-3)Gal(b1-4)GlcNAc(b1-3)Gal(b1-4)[Fuc(a1-3)]GlcNAc
# Method in brief: as §1
# [42] = target: Neu5Ac(a2-3)Gal(b1-4)GlcNAc(b1-6)[Gal(b1-3)]GalNAc
# Method in brief: as §1
# [43] = target: Neu5Ac(a2-3)Gal(b1-4)GlcNAc(b1-6)[Neu5Ac(a2-3)Gal(b1-3)]GalNAc
# Method in brief: as §1
# [44] = target: Neu5Ac(a2-3)Gal(b1-4)GlcNAc6S
# Method in brief: as §1
binder,measurement,setting,value
Surfactant Protein D (Human); Neck + Carbohydrate Recognition Domain (NCRD) (Homo sapiens) (protein) MLLFLLSALVLLTQPLGYLEAEMKTYSHRTMPSACTLVMCSSVESGLPGRDRDGREGPRGEKGDPGLPGAAGQAGMPGQAGPVGPKGDNGSVGEPGPKGDTGPSGPPGPPGVPGPAGREGALGKQGNIGPQGKPGPKGEAGPKGEVGAPGMQGSAGARGLAGPKGERGVPGERGVPGNTGAAGSAGAMGPQGSPGARGPPGLKGDKGIPGDKGAKGESGLPDVASLRQQVEALQGQVQHLQAAFSQYKKVELFPNGQSVGEKIFKTAQFVKPFTEAQLLCTQAGGQLASPRSAAENAALQQLVVAKNEAAFLSMTDSKTEGKFTYPTGESLVYSNWAPGEPNDDGGSEDCVEIFTNGKWNDKACGEKRLVVCEF,glycan array binding signal (z-score),[1],-0.155
same,glycan array binding signal (z-score),[2],-0.156
same,glycan array binding signal (z-score),[3],-0.153
same,glycan array binding signal (z-score),[4],-0.15
same,glycan array binding signal (z-score),[5],-0.091
same,glycan array binding signal (z-score),[6],-0.133
same,glycan array binding signal (z-score),[7],4.08
same,glycan array binding signal (z-score),[8],5.42
same,glycan array binding signal (z-score),[9],10.9
same,glycan array binding signal (z-score),[10],0.077
same,glycan array binding signal (z-score),[11],5.1
same,glycan array binding signal (z-score),[12],1.64
same,glycan array binding signal (z-score),[13],2.4
same,glycan array binding signal (z-score),[14],-0.152
same,glycan array binding signal (z-score),[15],7.96
same,glycan array binding signal (z-score),[16],5.92
same,glycan array binding signal (z-score),[17],-0.135
same,glycan array binding signal (z-score),[18],-0.156
same,glycan array binding signal (z-score),[19],-0.146
same,glycan array binding signal (z-score),[20],-0.154
same,glycan array binding signal (z-score),[21],-0.156
same,glycan array binding signal (z-score),[22],-0.153
same,glycan array binding signal (z-score),[23],-0.155
same,glycan array binding signal (z-score),[24],-0.158
same,glycan array binding signal (z-score),[25],-0.151
same,glycan array binding signal (z-score),[26],-0.156
same,glycan array binding signal (z-score),[27],-0.142
same,glycan array binding signal (z-score),[28],-0.15
same,glycan array binding signal (z-score),[29],-0.153
same,glycan array binding signal (z-score),[30],-0.153
same,glycan array binding signal (z-score),[31],-0.141
same,glycan array binding signal (z-score),[32],-0.153
same,glycan array binding signal (z-score),[33],-0.151
same,glycan array binding signal (z-score),[34],-0.154
same,glycan array binding signal (z-score),[35],-0.15
same,glycan array binding signal (z-score),[36],-0.144
same,glycan array binding signal (z-score),[37],-0.153
same,glycan array binding signal (z-score),[38],-0.153
same,glycan array binding signal (z-score),[39],-0.152
same,glycan array binding signal (z-score),[40],-0.143
same,glycan array binding signal (z-score),[41],-0.151
same,glycan array binding signal (z-score),[42],-0.156
same,glycan array binding signal (z-score),[43],-0.149
same,glycan array binding signal (z-score),[44],-0.14
